Our source for the z-score values is PubChem BioAssay AID488969 (Vanderbilt High Throughput Screening Facility, 2010).

The full ranking holds about 110,000 compounds; the median of “z-score” is about -0.1, and the highest 2% start at about 2. The list shows a part of the results.

For this assay, the target named is Metabotropic glutamate receptor 8 (Rattus norvegicus) (UniProt P70579). As to the kind of experiment: rat mGluR8 modulators via GIRK flux, primary screen, cell-based, thallium flux, HTS (AID 488969). Conditions: HEK293 rat mGluR8, GIRK (G protein-gated inwardly rectifying potassium channel) thallium flux, FluoZin2; at 10 µM; stronger effect = higher value; submaximal glutamate (EC20) added with thallium.
Chain of UniProt P70579 (P70579 whole entry, looked up): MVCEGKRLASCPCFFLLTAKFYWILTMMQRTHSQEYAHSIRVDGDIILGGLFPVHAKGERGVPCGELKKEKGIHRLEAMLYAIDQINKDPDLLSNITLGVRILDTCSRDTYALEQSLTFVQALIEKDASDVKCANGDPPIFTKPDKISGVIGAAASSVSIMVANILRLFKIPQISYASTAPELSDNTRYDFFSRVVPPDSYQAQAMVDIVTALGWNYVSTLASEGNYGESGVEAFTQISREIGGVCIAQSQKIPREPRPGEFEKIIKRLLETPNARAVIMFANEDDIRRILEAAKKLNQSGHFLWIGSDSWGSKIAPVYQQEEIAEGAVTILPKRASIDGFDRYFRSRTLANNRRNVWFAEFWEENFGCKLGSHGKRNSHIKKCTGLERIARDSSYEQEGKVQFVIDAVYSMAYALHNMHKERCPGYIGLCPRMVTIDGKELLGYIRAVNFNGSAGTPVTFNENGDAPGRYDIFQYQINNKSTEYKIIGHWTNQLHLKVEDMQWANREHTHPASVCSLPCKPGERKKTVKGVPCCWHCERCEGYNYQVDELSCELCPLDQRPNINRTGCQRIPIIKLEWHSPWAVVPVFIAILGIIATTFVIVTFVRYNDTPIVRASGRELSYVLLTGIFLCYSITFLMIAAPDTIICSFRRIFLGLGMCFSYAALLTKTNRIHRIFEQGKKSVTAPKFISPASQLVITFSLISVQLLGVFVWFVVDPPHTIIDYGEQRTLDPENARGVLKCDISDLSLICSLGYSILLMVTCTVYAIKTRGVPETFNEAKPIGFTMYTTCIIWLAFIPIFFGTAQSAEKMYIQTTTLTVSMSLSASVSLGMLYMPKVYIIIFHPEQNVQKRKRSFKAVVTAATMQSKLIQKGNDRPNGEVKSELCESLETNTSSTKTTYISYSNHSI
With `O=C(N/N=C/c1ccccc1)c1ccc(CN2C(=O)c3cccc4cccc2c34)cc1`, the z-score is -0.149.
In the case of `O=C(COC(=O)CN1C(=O)C(=O)c2ccccc21)OCN1C(=O)c2ccccc2C1=O` it was -0.0392.
The figure for `O=C(Cc1ccc(Cl)cc1)Nc1ccc(-c2nnc(-c3ccco3)o2)cc1` is -0.191; for `Clc1ccc(-n2nnnc2-c2cnc(-c3ccncc3)nc2-c2cccs2)cc1` it is -0.676; for `COc1ccc(OC)c(S(=O)(=O)Nc2cnc3ccccc3c2)c1` it is -0.244.
The figure for `Cc1ccc(S(=O)(=O)C2(C(=O)Nc3cccnc3)CC2)cc1` is -0.0438; for `Nc1ccc(Br)cc1C(=O)O` it is 0.0923.
In turn, `C/C(=C\C(=O)c1ccc(Br)cc1)Nc1cccc(Cl)c1` displayed a z-score of 0.0464.
In the case of `CC(/C=N/NC(=O)c1cc(C(C)(C)C)[nH]n1)=C\c1ccccc1` it was -0.572.
For `N=C1CCCN1CC(=O)c1ccc(Cl)cc1`, the z-score is 0.073.
In the case of `COc1ccc(S(=O)(=O)Cc2ccc(C(=O)NCc3cccs3)o2)cc1` it was 0.0328; in that of `COc1ccc(/C=N/Nc2nc(-c3ccc(Cl)cc3)cc(C(F)(F)F)n2)cc1OC`, -0.203; in that of `COc1ccc(-n2c(C)nnc2SCC(=O)N2C(C)CCCC2C)cc1` (centres undefined), 0.00573.
In the case of `CCCN1Cc2cccc(C(=O)Nc3ccc4c(c3)OCCO4)c2C1=O` it was -0.798; in that of `CCCCn1nnnc1SCC(=O)Nc1ccc2c(c1)OCCO2`, -0.304; in that of `COc1ccc(CCNS(=O)(=O)c2cn(C)c(=O)n(C)c2=O)cc1`, 1.08.
The figure for `CC(C)NC(=O)c1cc(-c2cccs2)on1` is 0.689; for `COc1ccc(Cl)cc1NC(=S)N1CCN(C(=O)c2ccco2)CC1` it is 0.159.
Compound `O=C(Nc1ncc2c(n1)CC(c1ccccc1)CC2=O)c1ccco1` (centres undefined) registered a z-score of -0.0151.
Compound `CC(NC(=O)COc1ccc(Oc2ccccc2)cc1)C(=O)O` (centres undefined) displayed a z-score of -2.05.
In the case of `C/C(=N\NC(=O)C1CC1)c1ccc(Cl)c(Cl)c1` it was -0.0353.
In the case of `Cc1ccc([N+](=O)[O-])cc1NC(=S)NC(=O)CC(C)(C)C` it was 0.834; in that of `O=C(CN1CCCC1=O)NC1(C(F)(F)F)NC(=O)N(Cc2ccccc2)C1=O` (centres undefined), -0.208.
Compound `CCOC(=O)c1sc(C)c2c(=O)n(CC(=O)c3ccc(Br)cc3)nnc12` had a z-score of 0.149.
In the case of `COc1ccc(N2CCN(c3ccc(N)cc3C#N)CC2)cc1` it was 0.0332.
In turn, `Cc1noc(C)c1CN1C(=O)NC2(CCc3ccccc3C2)C1=O` (centres undefined) had a z-score of -0.622.
For the compound `COc1ccc(-n2c(Cc3cc(=O)[nH]c(=O)[nH]3)nnc2SCC(=O)NC2CCCC2)cc1`, the z-score turned out to be 0.273.
In the case of `O=C(CCl)Oc1ccc2occ(C(=O)c3cccs3)c2c1` it was -0.0454; in that of `CCOC(=O)c1ccccc1NC(=O)CSc1ccccc1`, -0.48.
`O=C(c1ccccc1)N1CCN(C2c3cccc4cccc(c34)C2NS(=O)(=O)c2ccccc2)CC1` (centres undefined) displayed a z-score of -0.444.
In the case of `Cc1ccc(-n2c(C)nnc2SCC(=O)N2CCc3ccccc3C2)cc1` it was -0.994; in that of `COCC(=O)Nc1c(C(=O)Nc2ccccc2OC)oc2ccccc12`, -0.342; in that of `Cc1cc(C)c(NS(=O)(=O)c2ccc3c(c2)NC(=O)CC(=O)N3)c(C)c1`, -0.205.
The figure for `Cc1cc(C)cc(C(=O)N2CCC(C(N)=O)CC2)c1` is -0.46.
The figure for `CCOc1ccc(N2C(=O)CC(N(CCc3ccc(OC)cc3)C(=O)c3cccc(F)c3)C2=O)cc1` (centres undefined) is -0.319; for `CCOC(=O)CNc1ccc(C(=O)OCC)cc1[N+](=O)[O-]` it is -0.536.
On to `O=C(Nc1cc(C(F)(F)F)ccc1N1CCOCC1)c1c(F)c(F)c(F)c(F)c1F`, for which the z-score turned out to be 0.309.
The compound `O=C(CCN1C(=O)c2ccccc2C1=O)Nc1ccc(S(=O)(=O)NC2=NCCCCC2)cc1` came in with a z-score of 0.0925.
In the case of `Cc1nnnn1/C(=C\c1ccccc1)C(=O)OCC(=O)N1CC2(C)CC1CC(C)(C)C2` (centres undefined) it was -0.201; in that of `O=C(/C=C/c1ccc2c(c1)OCO2)NCCSCc1ccc(Cl)cc1Cl`, -0.409; in that of `CCN(CC)C(=O)CN(C)S(=O)(=O)c1cccc2nsnc12`, -0.307.
The figure for `COc1cc(/C=N/NC(=O)C(=O)Nc2ccccn2)ccc1O` is -0.198; for `COc1cccc(/C=N/NC(=O)CC(=O)NCCc2ccc(OC)c(OC)c2)c1` it is -0.018; for `CCn1c(SCC(=O)Nc2nc(-c3ccc(C)cc3)cs2)nnc1-c1ccccc1O` it is -1.61.
The figure for `O=C(NC1CC1)c1cc(Cl)ccc1[N+](=O)[O-]` is -0.0765.
In turn, `CN1CCN(C2=Cc3ccccc3Sc3cc(F)c(F)cc32)CC1` came in with a z-score of 0.49.
In the case of `C/C(Cn1nnc([N+](=O)[O-])n1)=N\NC(=O)c1cccc(Cl)c1` it was -0.23; in that of `CCCN(CCC)c1ncnc2c1cnn2-c1ccc(OC)cc1`, -0.333.
In the case of `NC1=NC(=O)S/C1=C\c1ccc(O)cc1` it was -0.241.
The compound `CC(=O)[C@H]1[C@@H]2C(=O)N(c3cccc(Cl)c3)C(=O)[C@@H]2[C@H]2c3ccccc3C=CN21` came in with a z-score of 0.0244.
The figure for `O=C(c1cccc(S(=O)(=O)N2CCOCC2)c1)N1CCN(c2ccc(F)cc2)CC1` is -0.3.
The figure for `Cc1ccc(C(=O)c2ccc([N+](=O)[O-])cc2)cc1C` is 0.56; for `CCC(C)NC(=O)C1CCC(=O)N1Cc1ccc(C)cc1` (centres undefined) it is 0.401; for `N=C1/C(=C/c2cccn2-c2cccc([N+](=O)[O-])c2)C(=O)N=C2SC=CN12` it is -0.207.
In turn, `Cc1ccc(S(=O)(=O)NC(C)(C)CSc2nncn2N)cc1` yielded a z-score of 0.228.
In turn, `O=C(Nc1cc(C(=O)N2CCCC2)ccc1N1CCCC1)C1CC1` yielded a z-score of 0.345.
`Cc1cccc(OCC(O)Cn2c(NCc3cccnc3)nc3c2c(=O)[nH]c(=O)n3C)c1` (centres undefined): the z-score amounted to 0.247.
The figure for `CC(C)CCNC1=NCCCCC1` is 0.614.
Turning to `Cc1ccccc1NC(NC(=O)c1cccs1)C(Cl)(Cl)Cl` (centres undefined), the z-score was -0.934.
The figure for `O=C(N[C@@H](Cc1ccccc1)C(=O)O)c1cccnc1` is 1.48; for `O=S(=O)(c1ccccc1)N1CCCC1c1nc2ccccc2s1` (centres undefined) it is -0.228; for `CCOC(=O)c1cnc(SCc2cccc(C)c2)nc1N` it is -0.132.
In the case of `COC(=O)N/N=C/c1cc(Cl)cc(Cl)c1OCc1ccc(F)cc1` it was 1.09; in that of `CCc1nnc(NC(=O)CSc2nc3ccccc3c(=O)n2CCCOC)s1`, -0.0586.
In the case of `COc1cccc(-c2csc3nnc(SCC(=O)c4ccc(NC(C)=O)cc4)n23)c1`, the z-score is -0.299.
In the case of `Cc1ccc(C(=O)NCCc2nnc3ccc(SCC(=O)Nc4ccccc4C)nn23)cc1` it was -0.0798; in that of `CC1CCN(C(=S)NC(=O)C2CCCCC2)CC1`, 0.322.
The figure for `CC(C)(C)NC(=O)COC(=O)c1ccccc1OCC(=O)Nc1ccc(Br)cc1` is -0.154; for `CC(C)[C@H]1CC[C@@H](C)C(C(=O)c2ccccc2)C1=O` (some centres undefined) it is 0.151; for `COc1cc(C(=O)Nc2ccc(S(=O)(=O)N3CCc4ccccc43)cc2)cc(OC)c1OC` it is 0.123.
The figure for `CC(C)NC(=O)Nc1cccs1` is -0.115; for `COc1ccccc1OCCn1cc(/C=C(\C#N)C(=O)NCc2cccs2)c2ccccc21` it is -0.349; for `Cc1c(NC(=O)c2ccc(Br)o2)c(=O)n(-c2ccccc2)n1C` it is 0.216.
`O=C(NC1CCCCC1)C(c1ccc(F)cc1)N(C(=O)c1cccs1)c1ccc2c(c1)OCO2` (centres undefined) yielded a z-score of 0.326.
`FC(F)Oc1ccc(NC(=S)NCc2ccccc2)cc1Cl` returned a z-score of 0.178.
In the case of `COC(=O)C1C(=O)NCC1c1ccccc1` (centres undefined) it was -0.506; in that of `Cn1c(SC2CCCCC2=O)nnc1-c1ccncc1` (centres undefined), -0.152.
As for `CCOc1ccc(N(CC(=O)NCC2CCCO2)S(=O)(=O)c2ccc(Cl)cc2)cc1` (centres undefined), the z-score was -0.333.
In the case of `COc1ccc(C(=O)/C=C/NCc2ccc(C)cc2)cc1`, the z-score is -0.0177.
The figure for `N/C(=N\OC(=O)c1ccc2ccccc2c1)c1cccc([N+](=O)[O-])c1` is -0.297.
In the case of `CC(C)c1nc2ccc(NC(=O)C34CC5CC(CC(C5)C3)C4)cc2[nH]1` it was -0.198.
With `CCc1ccc(CCC(=O)Nc2ccc(OC)cc2)o1`, the z-score is -0.00289.
As for `Cc1nnc2sc(-c3ccco3)nn12`, the z-score was 0.144.
In the case of `O=c1c2ccccc2n2c(-c3ccc(C(F)(F)F)cc3)nnc2n1Cc1ccccc1` it was -0.194; in that of `Cc1ccc(C(=O)CSc2nc(-c3ccccc3)ccc2C#N)cc1`, -0.197.
Take `Cc1cccc(NC(=O)N(C)Cc2cccs2)c1`: the z-score was -0.194.
The figure for `Cc1nc(NCCc2ccccc2)c2oc3ccccc3c2n1` is -0.143; for `COc1ccc(N2CC(C(=O)O)CC2=O)cc1` (centres undefined) it is -0.141.
The figure for `COc1ccc(S(=O)(=O)NNC(=O)c2csc(-n3nc(C)cc3C(F)(F)F)n2)cc1OC` is -0.535.
Regarding `Cn1c(NCC(O)CO)nc2c1c(=O)n(Cc1ccc(Cl)c(Cl)c1)c(=O)n2C` (centres undefined), the z-score was -0.188.
`CCOC(=O)/C=c1\s/c(=C\c2ccc(-c3ccccc3)cc2)c(=O)n1CC(=O)NCc1ccc2c(c1)OCO2` gave a z-score of -1.92.
`COc1ccc(N2CCN(CC(=O)Nc3nnc(-c4ccccc4)s3)CC2)cc1` yielded a z-score of 0.751.
In the case of `CCCCn1c(NC(=O)CC)c(C#N)c2nc3ccccc3nc21` it was -0.751.
The compound `COc1cc(CN(C)Cc2ccccc2)cc(OC)c1O` showed a z-score of 0.167.
As for `CCN(Cc1ccccc1)C(=O)C1CCC(CNc2c(N3CCOCC3)c(=O)c2=O)CC1` (centres undefined), the z-score was 0.127.
Compound `O=C(CNC(=O)C(c1ccccc1)c1ccccc1)N/N=C/c1ccc(O)c([N+](=O)[O-])c1` had a z-score of -0.819.
In turn, `C=CCn1c(SCC(=O)Nc2c(C)n(C)n(-c3ccccc3)c2=O)nc2sc(C)c(C)c2c1=O` displayed a z-score of -0.594.
For the compound `COCCN1C(=O)N(c2cccc(C)c2)C(=O)C1CC(=O)Nc1ccc(F)cc1` (centres undefined), the z-score turned out to be 0.255.
In the case of `Cc1nn2c(-c3cccc(NC(=O)CSc4nc5ccccc5o4)c3)nnc2c2ccccc12` it was 0.406; in that of `CC1(C)CC(=O)C=C(Nc2ccc(C(=O)O)cc2)C1`, 0.0594; in that of `CN(c1ccc(Cl)cc1)c1cc(=O)n(C)c2ccccc12`, -0.43.
In the case of `Fc1ccccc1OCCCN1CCOCC1` it was -0.161.
In the case of `Cc1noc(C)c1COc1cccc(C(=O)Nc2ccc(OCc3ccccc3)cc2)c1` it was -0.0143.
As for `Cn1nc(C(F)(F)F)c2cc(C(=O)Nc3ccc(Cl)cc3)sc21`, the z-score stood at 0.176.
The figure for `CC(C)Nc1nc(NC(C)C)nc(OCCOC(=O)Nc2ccccc2)n1` is -0.861; for `O=C(Nc1cccc(Cl)c1)Nc1ccc2c(c1)C(=O)OC2` it is -0.0474; for `CCOc1ccc(N(CC(=O)Nc2cccc(F)c2)S(=O)(=O)c2c(C)noc2C)cc1` it is -0.118.
In the case of `Cc1cc(NC(c2cccnc2)c2ccc3cccnc3c2O)no1` (centres undefined) it was -0.344; in that of `COc1ccc(S(=O)(=O)Nc2nc3ccccc3s2)cc1OC`, -0.209.
